Test results from PubChem BioAssay AID463173 (ICCB-Longwood Screening Facility, Harvard Medical School, 2010).
Hit rate of the full screen: of about 52,000 compounds, about 1,700 (3.3%) were called active. Cut-off read from the data, not from the text of the source: active = survival mostly below about 52% (no sharp cut-off); inactive = mostly above about 56%. The list shows a part of the results.

tested on: Wild type; assay: S. aureus survival, RN4220 and DeltatarO strains – OD600, teichoic acid synthesis inhibitors, primary screen (AID 463173); settings: S. aureus RN4220 wild type/DeltatarO growth, OD600, 18 h, hits give low values, screened at 18.75 µg/mL (by protocol)

SMILES	survival
CC(C)CC(=O)Nc1cccc(-c2cn3cccnc3n2)c1	inactive: 72%
CCCn1c(=O)c2sccc2n2c(CCCC(=O)N3CCN(c4ccc(OC)cc4)CC3)nnc12	inactive: 99%
CCOc1ccc(NC(=O)CSc2nc3ccccc3nc2N2CCOCC2)cc1	inactive: 112%
COc1ccc(CNC(=O)c2cc3cccc4c3n2CC(C)S4)cc1 (stereo not given)	inactive: 89%
COc1ccc(S(=O)(=O)NC(C)(C)CO)cc1-c1nnc2c3ccccc3c(C)nn12	inactive: 93%
O=c1c(N2CCN(c3ccc(F)cc3)CC2)csc2ccc(F)cc12	inactive: 67%
Cc1nn(-c2cccc(Cl)c2)c2nc(-c3cccnc3)cc(C(F)(F)F)c12	inactive: 83%
CC1CCN(S(=O)(=O)c2ccc3nc(Nc4cccc(F)c4)ccc3c2)CC1	inactive: 51%
CCOCCCNC(=O)CN1C(=O)COc2ccc(S(=O)(=O)N3CCOCC3)cc21	inactive: 100%
COc1ccc(-c2cc(C(F)(F)F)nc(SCCC(=O)Nc3ccc(F)cc3F)n2)cc1	inactive: 76%
COc1ccc(CNC(=O)c2cc(-c3ccc(OC)c(OC)c3)nc3n[nH]c(-c4ccc(C)cc4)c23)cc1	inactive: 74%
CC(=O)c1ccc(NC(=O)CSc2nnc3c(n2)[nH]c2ccccc23)cc1	inactive: 135%
CCOC(=O)CN1CCC(n2nnc3cc(C(F)(F)F)ccc32)CC1	inactive: 110%
O=C(Nc1ccc(F)cc1F)c1ccc(-n2cnc3cccnc32)cc1	inactive: 73%
COc1ccc(N(C)C(=O)c2oc(=O)c3ccccc3c2-c2ccc(C)cc2)c(OC)c1	inactive: 81%
CCOC(=O)C1CCCN(CCC(=O)Nc2ccc(Br)c(C)c2)C1 (stereo not given)	inactive: 104%
N#Cc1c(-n2ncnc2-c2ccccc2Cl)sc2c1CCCCC2	inactive: 38%
COc1ccc(N2CCN(C(=O)CCCCn3c(=O)[nH]c4ccsc4c3=O)CC2)cc1	inactive: 116%
Clc1ccc(-c2nc3ncccn3c2Nc2ccc3c(c2)OCCO3)cc1	inactive: 82%
OCC#CCSc1nc2ccccc2s1	inactive: 113%
CCOC(=O)c1ccc(N2C(=O)c3n[nH]c(-c4cccs4)c3C2c2cccc(O)c2)cc1 (stereo not given)	inactive: 24%
O=C(CCC1N=C2c3ccccc3N=C(SCc3ccc(F)cc3)N2C1=O)N1CCN(c2ccccc2)CC1 (stereo not given)	inactive: 79%
Cc1cc(C)c(OCC(=O)N/N=C/c2ccc(O)cc2O)c(Br)c1	inactive: 122%

SMILES	survival
CCOC(=O)C1CCN(C(c2ccc(C)cc2)c2sc3nc(-c4ccco4)nn3c2O)CC1 (stereo not given)	inactive: 72%
CCOc1ccc(/C=C(\C#N)C(=O)Nc2sc3c(c2C(=O)OC)CCC3)cc1OC	inactive: 137%
CC(C)c1ccc(CNC(=O)c2ccc(N3CCCC3)c(NC(=O)NCc3ccc(F)cc3)c2)cc1	inactive: 60%
Cc1ccc(CNC(=O)CCc2c(C)c3cc4c(C)coc4cc3oc2=O)cc1	inactive: 104%
COC(=O)c1c(SCC(=O)Nc2ccccc2C(F)(F)F)[nH]c2ccc(Cl)cc2c1=O	inactive: 73%
Cc1cccc(Nc2cc(C)nc3nc(-c4ccccc4)nn23)c1	inactive: 109%
CCCNC(=O)c1ccc(Cn2c(SCC(N)=O)nc3ccccc3c2=O)cc1	inactive: 81%
NCC(O)CN(c1ccccc1)c1ccccc1 (stereo not given)	inactive: 97%
COc1ccc(OC)c(NC(=O)c2cc3cccc(OC)c3oc2=O)c1	inactive: 80%
COc1cccc(CNC(=O)Cn2ncn3c(cc4ccccc43)c2=O)c1	inactive: 75%
Cc1nn(-c2ccccc2)c(OC(=O)c2ccc(Cl)cc2)c1S(=O)(=O)c1ccccc1	inactive: 55%
Cc1ccc(-c2nc3cccc(C)n3c2Nc2ccc3c(c2)OCO3)o1	inactive: 22%
CCOc1ccccc1C(=O)N1CCc2cc(OC)c(OC)cc2C1COc1ccc(OC)cc1 (stereo not given)	inactive: 60%
Cc1cc(-c2ccccc2)nc2cc(C(N)=O)nn12	inactive: 99%
COc1ccc(CNS(=O)(=O)c2cc3c(cc2Cl)NC(=O)CO3)cc1	inactive: 80%
CCC(=O)Oc1c(Sc2ccc(C)cc2)c(C)nn1-c1ccccc1	inactive: 55%
CC(C)CC(=O)Nc1ccc2nc(SCC(=O)N3CCOCC3)sc2c1	inactive: 108%
O=C(CSc1nc(=O)n(CCN2CCOCC2)c2c1CCC2)Nc1ccc(F)cc1F	inactive: 146%
O=C(c1cc(-c2ccc(Br)cc2)n[nH]1)N1CCN(S(=O)(=O)c2ccc(Cl)s2)CC1	inactive: 68%
CCNc1nc2c(c(=O)n(C)c(=O)n2C)n1CC	inactive: 115%
CCOC(=O)c1cc(-c2ccc(F)cc2)n(CCC(=O)Nc2cc(OC)cc(OC)c2)c1C	inactive: 70%
CCN(CC)c1ccc(-n2nc3cc(C)c(NC(C)=O)cc3n2)cc1	inactive: 108%
CCC(=O)Nc1nnc(SCCOC)s1	inactive: 120%

SMILES	survival
Cn1c(=O)c2c(nc(N3CCOCC3)n2Cc2ccccc2F)n(C)c1=O	inactive: 74%
O=C(Nc1ccccc1C(F)(F)F)C1CCN(S(=O)(=O)c2ccccc2)CC1	inactive: 72%
O=C(CSc1nc2ncccc2o1)Nc1ccc(Cl)cc1F	inactive: 81%
COC(=O)CSc1nc2sc3c(c2c(=O)n1-c1ccccc1)C(C)CCC3 (stereo not given)	inactive: 82%
CC(C)Oc1ccc(C(=O)Nc2nnc3n2CCS3)cc1	inactive: 135%
COc1cc(C2c3c(-c4cc(C)ccc4O)n[nH]c3C(=O)N2Cc2ccco2)cc(OC)c1OC (stereo not given)	inactive: 73%
O=C(CSc1nc(O)cc(=O)[nH]1)Nc1ccccc1	inactive: 102%
CCCc1nn2c(=O)cc(COC(=O)c3cccc(NC(=O)c4ccc(OCC)cc4)c3)nc2s1	active: -2%
O=C(Cn1cc(SCc2ccc(Cl)cc2)c2ccccc21)N1CCOCC1	inactive: 79%
Cc1cc(Cl)ccc1NS(=O)(=O)c1c(C(=O)N2CCCCCC2)c(C)n(C)c1C	inactive: 77%
COc1ccc(NC(=O)c2cc(S(=O)(=O)N3CCCC(C)C3)cn2C)c(OC)c1 (stereo not given)	inactive: 68%
COc1ccc(NC(=O)CSc2nc3ccccc3n2CC(=O)N(C)C2CCCCC2)cc1	inactive: 134%
Cc1c(Cl)cccc1NC(=O)CSc1nc(=O)[nH]c2c1CCC2	inactive: 66%
O=S(=O)(c1cccc(Cl)c1)n1c(/C=C/c2ccccc2Cl)nc2ccccc21	inactive: 54%
O=c1n(Cc2ccccc2)nc2n1-c1cc(Cl)ccc1OC2	inactive: 63%
Cc1c2cnn(-c3ccccc3)c(=O)c2c(C)n1CCCC(=O)Nc1cccc(F)c1	inactive: 77%
Cc1ccc(-c2c3c(=O)n(C)c(=O)n(C)c3c3c(-c4cccc(C)c4)nc4ccccc4n23)cc1	inactive: 78%
COC(=O)c1ccccc1NC(=O)c1ccc2c(c1)CCN2S(=O)(=O)c1ccc(Cl)cc1	inactive: 86%
Cc1ccc(C)c(Cn2c3ccccc3c3cnn(CC(=O)NC4CCCCCC4)c(=O)c32)c1	inactive: 90%
COc1ccc(-c2cc(OC(=O)c3cccc(Cl)c3)c3c(C)oc(C)c3c(=O)c2)cc1OC	inactive: 76%
COc1ccc(CN(Cc2ccco2)C(=O)COc2ccccc2Cl)cc1	inactive: 62%
N#Cc1nc(/C=C/c2ccc(F)cc2)oc1N1CCCCCC1	inactive: 69%
CC(NS(=O)(=O)c1ccc2c(c1)CCN2C(=O)CCCC(=O)O)c1ccccc1 (stereo not given)	inactive: 87%

SMILES	survival
Cc1ccccc1NC(=O)CSc1nc(-c2cccs2)nc2cc(=O)[nH]n12	inactive: 78%
COc1ccc(-n2nc(C(=O)Nc3cc(C)c(Cl)cc3OC)c3c4ccccc4n(C)c3c2=O)cc1	inactive: 78%
COc1cc(OC)cc(C(=O)N2CCN(C(=O)COc3ccc(C)cc3)CC2)c1	inactive: 74%
COc1cccc(-n2c(SCC(=O)Nc3ccc4c(c3)OCO4)nc3c([nH]c4ccccc43)c2=O)c1	inactive: 87%
CCN(CC)c1ccc(NC(=O)Cn2nc3c(cc2=O)CCCC3)c(C)c1	inactive: 81%
CCc1c(C)sc(NC(=O)c2cc3nc(-c4ccc(OC)cc4)cc(C(F)(F)F)n3n2)c1C(=O)OC	inactive: 94%
CC1=C(C(=O)Nc2ccccc2)C(c2ccc(Br)cc2)n2nc(CCCO)nc2N1 (stereo not given)	inactive: 79%
COc1ccc(-n2ncc3c2ncn2nc(-c4ccc(OC)c(OC)c4)nc32)cc1	inactive: 87%
CCCCN(CCCC)CCCNC(=O)c1cc(-c2ccc(Cl)s2)nc2ccccc12	inactive: 52%
CC(C)c1ccc(C2CC(=O)N3CN(C4CCCCC4)CSC3=C2C#N)cc1 (stereo not given)	inactive: 68%
CCc1nc2ccccc2n1CC(C)C(=O)O (stereo not given)	inactive: 108%
Cn1ccc2cc(S(=O)(=O)N3CCCC(C(=O)NCc4ccccc4F)C3)ccc21 (stereo not given)	inactive: 90%
CN(C)c1ccc(NC(=O)CSc2nc(N)cc(=O)[nH]2)cc1	inactive: 118%
Cc1ccccc1-c1nc(CNC(=O)NC2CCCCC2)c(C)o1	inactive: 73%
COc1ccccc1N1CCN(C(=O)c2nn(C)c3c2CS(=O)(=O)c2ccccc2-3)CC1	inactive: 83%
CCCc1cc(=O)[nH]c(Nc2cc(Cl)cc(Cl)c2)n1	inactive: 16%
CCn1cc2nc(SCc3cc(C)ccc3C)n(Cc3ccc(Cl)cc3)c(=O)c2n1	inactive: 88%
Cc1nn(Cc2ccc(F)cc2)c(C)c1NC(=O)c1noc2c1CCc1ccccc1-2	inactive: 90%
CCN(CC)c1ccc(CN(C(=O)c2cc(=O)c3ccccc3o2)C2CCS(=O)(=O)C2)cc1 (stereo not given)	inactive: 76%
COc1cccc(CNC(=O)CN2C(=O)COc3ccc(S(=O)(=O)N4CCCCC4)cc32)c1	inactive: 100%
Cn1cc(S(=O)(=O)N2CCCC2)cc1C(=O)Nc1ccc(F)cc1F	inactive: 86%
